# Measurements: the supplement of paper PMC8728848
# Some of the results follow.
# Tests used:
# Experiment in all cases: glycan array binding signal (z-score within array); higher = stronger binding
# Conditions in all cases: glycan notation: IUPAC condensed, linker removed
# GlcNAc(b1-3)Gal(b1-4)Glc = target: GlcNAc(b1-3)Gal(b1-4)Glc
# In short: (§1)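 Glycan array binding is given as a within-array Z-score, which can be read as non-binding when negative. The arrays, 3228 of them, came from the Consortium for Functional Glycomics database and were retained only where the protein sequence was available. Z-scores were averaged across arrays of the same protein sequence at different concentrations or buffers and across linkers.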
# [1] = target: GlcNAc(b1-3)Gal(b1-4)GlcNAc
# In short: as §1
# [2] = target: GlcNAc(b1-3)Gal(b1-4)GlcNAc(b1-2)Man(a1-3)[GlcNAc(b1-3)Gal(b1-4)GlcNAc(b1-2)Man(a1-6)]Man(b1-4)GlcNAc(b1-4)GlcNAc
# In short: as §1
# [3] = target: GlcNAc(b1-3)Gal(b1-4)GlcNAc(b1-2)Man(a1-3)[GlcNAc(b1-3)Gal(b1-4)GlcNAc(b1-2)Man(a1-6)]Man(b1-4)GlcNAc(b1-4)[Fuc(a1-6)]GlcNAc
# In short: as §1
# [4] = target: GlcNAc(b1-3)Gal(b1-4)GlcNAc(b1-2)[GlcNAc(b1-3)Gal(b1-4)GlcNAc(b1-6)]Man(a1-6)[GlcNAc(b1-3)Gal(b1-4)GlcNAc(b1-2)Man(a1-3)]Man(b1-4)GlcNAc(b1-4)GlcNAc
# In short: as §1
# [5] = target: GlcNAc(b1-3)Gal(b1-4)GlcNAc(b1-3)Gal(b1-4)GlcNAc
# In short: as §1
# [6] = target: GlcNAc(b1-3)Gal(b1-4)GlcNAc(b1-3)Gal(b1-4)GlcNAc(b1-2)Man(a1-3)[GlcNAc(b1-3)Gal(b1-4)GlcNAc(b1-3)Gal(b1-4)GlcNAc(b1-2)Man(a1-6)]Man(b1-4)GlcNAc(b1-4)GlcNAc
# In short: as §1
# [7] = target: GlcNAc(b1-3)Gal(b1-4)GlcNAc(b1-3)Gal(b1-4)GlcNAc(b1-2)Man(a1-3)[GlcNAc(b1-3)Gal(b1-4)GlcNAc(b1-3)Gal(b1-4)GlcNAc(b1-2)Man(a1-6)]Man(b1-4)GlcNAc(b1-4)[Fuc(a1-6)]GlcNAc
# In short: as §1
# [8] = target: GlcNAc(b1-3)Gal(b1-4)GlcNAc(b1-3)Gal(b1-4)GlcNAc(b1-2)[GlcNAc(b1-3)Gal(b1-4)GlcNAc(b1-3)Gal(b1-4)GlcNAc(b1-6)]Man(a1-6)[GlcNAc(b1-3)Gal(b1-4)GlcNAc(b1-3)Gal(b1-4)GlcNAc(b1-2)Man(a1-3)]Man(b1-4)GlcNAc(b1-4)[Fuc(a1-6)]GlcNAc
# In short: as §1
# [9] = target: GlcNAc(b1-3)Gal(b1-4)GlcNAc(b1-3)Gal(b1-4)GlcNAc(b1-3)Gal(b1-4)GlcNAc(b1-2)Man(a1-3)[GlcNAc(b1-3)Gal(b1-4)GlcNAc(b1-3)Gal(b1-4)GlcNAc(b1-3)Gal(b1-4)GlcNAc(b1-2)Man(a1-6)]Man(b1-4)GlcNAc(b1-4)GlcNAc
# In short: as §1
# [10] = target: GlcNAc(b1-3)Gal(b1-4)GlcNAc(b1-3)Gal(b1-4)GlcNAc(b1-3)Gal(b1-4)GlcNAc(b1-2)Man(a1-3)[GlcNAc(b1-3)Gal(b1-4)GlcNAc(b1-3)Gal(b1-4)GlcNAc(b1-3)Gal(b1-4)GlcNAc(b1-2)Man(a1-6)]Man(b1-4)GlcNAc(b1-4)[Fuc(a1-6)]GlcNAc
# In short: as §1
# [11] = target: GlcNAc(b1-3)Gal(b1-4)GlcNAc(b1-3)Gal(b1-4)GlcNAc(b1-3)Gal(b1-4)GlcNAc(b1-2)[GlcNAc(b1-3)Gal(b1-4)GlcNAc(b1-3)Gal(b1-4)GlcNAc(b1-3)Gal(b1-4)GlcNAc(b1-6)]Man(a1-6)[GlcNAc(b1-3)Gal(b1-4)GlcNAc(b1-3)Gal(b1-4)GlcNAc(b1-3)Gal(b1-4)GlcNAc(b1-2)Man(a1-3)]Man(b1-4)GlcNAc(b1-4)[Fuc(a1-6)]GlcNAc
# In short: as §1
# [12] = target: GlcNAc(b1-3)Gal(b1-4)GlcNAc(b1-3)Gal(b1-4)GlcNAc(b1-3)Gal(b1-4)GlcNAc(b1-3)Gal(b1-4)GlcNAc(b1-2)Man(a1-3)[GlcNAc(b1-3)Gal(b1-4)GlcNAc(b1-3)Gal(b1-4)GlcNAc(b1-3)Gal(b1-4)GlcNAc(b1-3)Gal(b1-4)GlcNAc(b1-2)Man(a1-6)]Man(b1-4)GlcNAc(b1-4)GlcNAc
# In short: as §1
# [13] = target: GlcNAc(b1-3)Gal(b1-4)GlcNAc(b1-3)Gal(b1-4)GlcNAc(b1-3)Gal(b1-4)GlcNAc(b1-3)Gal(b1-4)GlcNAc(b1-2)Man(a1-3)[GlcNAc(b1-3)Gal(b1-4)GlcNAc(b1-3)Gal(b1-4)GlcNAc(b1-3)Gal(b1-4)GlcNAc(b1-3)Gal(b1-4)GlcNAc(b1-2)Man(a1-6)]Man(b1-4)GlcNAc(b1-4)[Fuc(a1-6)]GlcNAc
# In short: as §1
# [14] = target: GlcNAc(b1-3)Gal(b1-4)GlcNAc(b1-3)Gal(b1-4)GlcNAc(b1-3)Gal(b1-4)GlcNAc(b1-3)Gal(b1-4)GlcNAc(b1-2)[GlcNAc(b1-3)Gal(b1-4)GlcNAc(b1-3)Gal(b1-4)GlcNAc(b1-3)Gal(b1-4)GlcNAc(b1-3)Gal(b1-4)GlcNAc(b1-6)]Man(a1-6)[GlcNAc(b1-3)Gal(b1-4)GlcNAc(b1-3)Gal(b1-4)GlcNAc(b1-3)Gal(b1-4)GlcNAc(b1-3)Gal(b1-4)GlcNAc(b1-2)Man(a1-3)]Man(b1-4)GlcNAc(b1-4)[Fuc(a1-6)]GlcNAc
# In short: as §1
# [15] = target: GlcNAc(b1-3)Gal(b1-4)GlcNAc(b1-3)Gal(b1-4)GlcNAc(b1-3)GalNAc
# In short: as §1
# [16] = target: GlcNAc(b1-3)Gal(b1-4)GlcNAc(b1-3)GalNAc
# In short: as §1
# [17] = target: GlcNAc(b1-3)Gal(b1-4)GlcNAc(b1-3)[GlcNAc(b1-3)Gal(b1-4)GlcNAc(b1-3)]GalNAc
# In short: as §1
# [18] = target: GlcNAc(b1-3)Gal(b1-4)GlcNAc(b1-6)[Gal(b1-3)]GalNAc
# In short: as §1
# [19] = target: GlcNAc(b1-3)Gal(b1-4)GlcNAc(b1-6)[GlcNAc(b1-3)Gal(b1-3)]GalNAc
# In short: as §1
# [20] = target: GlcNAc(b1-3)Gal(b1-4)GlcNAc(b1-6)[GlcNAc(b1-3)]Gal(b1-4)GlcNAc
# In short: as §1
# GlcNAc(b1-3)GalNAc = target: GlcNAc(b1-3)GalNAc
# In short: as §1
# GlcNAc(b1-3)Man = target: GlcNAc(b1-3)Man
# In short: as §1
# [21] = target: GlcNAc(b1-3)[GlcNAc(b1-4)][GlcNAc(b1-6)]GlcNAc
# In short: as §1
# [22] = target: GlcNAc(b1-3)[GlcNAc(b1-6)]Gal(b1-4)GlcNAc
# In short: as §1
# [23] = target: GlcNAc(b1-3)[GlcNAc(b1-6)]GalNAc
# In short: as §1
# [24] = target: GlcNAc(b1-4)Gal(b1-4)GlcNAc
# In short: as §1
# GlcNAc(b1-4)GlcNAc = target: GlcNAc(b1-4)GlcNAc
# In short: as §1
# [25] = target: GlcNAc(b1-4)GlcNAc(b1-4)GlcNAc
# In short: as §1
# [26] = target: GlcNAc(b1-4)GlcNAc(b1-4)GlcNAc(b1-4)GlcNAc(b1-4)GlcNAc
# In short: as §1
# [27] = target: GlcNAc(b1-4)GlcNAc(b1-4)GlcNAc(b1-4)GlcNAc(b1-4)GlcNAc(b1-4)GlcNAc
# In short: as §1
# [28] = target: GlcNAc(b1-4)[GlcNAc(b1-6)]GalNAc
# In short: as §1
# [29] = target: GlcNAc(b1-6)Gal(b1-4)GlcNAc
# In short: as §1
# GlcNAc(b1-6)GalNAc = target: GlcNAc(b1-6)GalNAc
# In short: as §1
# [30] = target: GlcNAc6S(b1-3)Gal(b1-4)GlcNAc
# In short: as §1
# Kdn(a2-3)Gal(b1-3)GalNAc = target: Kdn(a2-3)Gal(b1-3)GalNAc
# In short: as §1
# Kdn(a2-3)Gal(b1-3)GlcNAc = target: Kdn(a2-3)Gal(b1-3)GlcNAc
# In short: as §1
# Kdn(a2-3)Gal(b1-4)Glc = target: Kdn(a2-3)Gal(b1-4)Glc
# In short: as §1
# Kdn(a2-3)Gal(b1-4)GlcNAc = target: Kdn(a2-3)Gal(b1-4)GlcNAc
# In short: as §1
# [31] = target: Kdn(a2-3)Gal(b1-4)[Fuc(a1-3)]GlcNAc
# In short: as §1
# Kdn(a2-6)Gal(b1-4)GlcNAc = target: Kdn(a2-6)Gal(b1-4)GlcNAc
# In short: as §1
# [32] = target: Man(a1-2)Man(a1-2)Man(a1-3)Man
# In short: as §1
# [33] = target: Man(a1-2)Man(a1-2)Man(a1-6)[Man(a1-3)]Man
# In short: as §1
# Man(a1-2)Man(a1-3)Man = target: Man(a1-2)Man(a1-3)Man
# In short: as §1
# [34] = target: Man(a1-2)Man(a1-3)[Man(a1-2)Man(a1-6)]Man
# In short: as §1
binder,measurement,setting,value
"FliC (Pseudomonas aeruginosa), P72151 (protein) MALTVNTNIASLNTQRNLNASSNDLNTSLQRLTTGYRINSAKDDAAGLQISNRLSNQISGLNVATRNANDGISLAQTAEGALQQSTNILQRIRDLALQSANGSNSDADRAALQKEVAAQQAELTRISDTTTFGGRKLLDGSFGTTSFQVGSNAYETIDISLQNASASAIGSYQVGSNGAGTVASVAGTATASGIASGTVNLVGGGQVKNIAIAAGDSAKAIAEKMDGAIPNLSARARTVFTADVSGVTGGSLNFDVTVGSNTVSLAGVTSTQDLADQLNSNSSKLGITASINDKGVLTITSATGENVKFGAQTGTATAGQVAVKVQGSDGKFEAAAKNVVAAGTAATTTIVTGYVQLNSPTAYSVSGTGTQASQVFGNASAAQKSSVASVDISTADGAQNAIAVVDNALAAIDAQRADLGAVQNRFKNTIDNLTNISENATNARSRIKDTDFAAETAALSKNQVLQQAGTAILAQANQLPQAVLSLLR",glycan array binding signal (z-score),GlcNAc(b1-3)Gal(b1-4)Glc,-0.164
same,glycan array binding signal (z-score),[1],-0.176
same,glycan array binding signal (z-score),[2],-0.111
same,glycan array binding signal (z-score),[3],-0.182
same,glycan array binding signal (z-score),[4],-0.135
same,glycan array binding signal (z-score),[5],-0.119
same,glycan array binding signal (z-score),[6],0.422
same,glycan array binding signal (z-score),[7],-0.044
same,glycan array binding signal (z-score),[8],-0.173
same,glycan array binding signal (z-score),[9],-0.032
same,glycan array binding signal (z-score),[10],-0.177
same,glycan array binding signal (z-score),[11],-0.145
same,glycan array binding signal (z-score),[12],0.453
same,glycan array binding signal (z-score),[13],-0.055
same,glycan array binding signal (z-score),[14],0.094
same,glycan array binding signal (z-score),[15],-0.143
same,glycan array binding signal (z-score),[16],-0.224
same,glycan array binding signal (z-score),[17],0.006
same,glycan array binding signal (z-score),[18],-0.093
same,glycan array binding signal (z-score),[19],-0.022
same,glycan array binding signal (z-score),[20],-0.238
same,glycan array binding signal (z-score),GlcNAc(b1-3)GalNAc,-0.167
same,glycan array binding signal (z-score),GlcNAc(b1-3)Man,-0.189
same,glycan array binding signal (z-score),[21],-0.203
same,glycan array binding signal (z-score),[22],-0.061
same,glycan array binding signal (z-score),[23],-0.16
same,glycan array binding signal (z-score),[24],-0.139
same,glycan array binding signal (z-score),GlcNAc(b1-4)GlcNAc,-0.232
same,glycan array binding signal (z-score),[25],-0.243
same,glycan array binding signal (z-score),[26],-0.055
same,glycan array binding signal (z-score),[27],-0.199
same,glycan array binding signal (z-score),[28],-0.148
same,glycan array binding signal (z-score),[29],-0.196
same,glycan array binding signal (z-score),GlcNAc(b1-6)GalNAc,-0.066
same,glycan array binding signal (z-score),[30],-0.111
same,glycan array binding signal (z-score),Kdn(a2-3)Gal(b1-3)GalNAc,-0.222
same,glycan array binding signal (z-score),Kdn(a2-3)Gal(b1-3)GlcNAc,-0.132
same,glycan array binding signal (z-score),Kdn(a2-3)Gal(b1-4)Glc,-0.115
same,glycan array binding signal (z-score),Kdn(a2-3)Gal(b1-4)GlcNAc,-0.064
same,glycan array binding signal (z-score),[31],-0.144
same,glycan array binding signal (z-score),Kdn(a2-6)Gal(b1-4)GlcNAc,-0.166
same,glycan array binding signal (z-score),[32],0.029
same,glycan array binding signal (z-score),[33],-0.175
same,glycan array binding signal (z-score),Man(a1-2)Man(a1-3)Man,-0.16
same,glycan array binding signal (z-score),[34],-0.155
